# The campaign covered roughly 150,000 compounds. About 540 (0.36%) showed an effect of 50% or more. The list shows a part of the results.
# System: Plasmodium falciparum
# Test: Primary screen in NF54 nanoGlo assay, in single point, at 2uM, 72h; a lower Z score goes with more inhibition
# Format: functional, Erythrocyte
# Settings: timepoint 72 hour
SMILES,% Inhibition [%],Z score
CN1CCN(C(=O)Cn2cc(NC(=O)c3occ4c3CCOC4)cn2)CC1,0,-0.07
CCCN1C(=O)N(c2ccccc2C)C(=O)[C@@H]1CC,-14,1.8
CCN(CCO)C(=O)c1ccc(C#N)cc1C,-8,1.03
Cc1nc(C)c(S(=O)(=O)N2CCN(C)c3cc(Cl)ccc32)s1,4,-0.58
CN(Cc1ncc[nH]1)C(=O)C1CC=CCC1C(=O)N1CCOCC1 (stereo not drawn),-3,0.38
O=C(c1ccccc1)N1CCC([C@H]2c3nccn3CCCN2Cc2cccnc2)CC1,-2,0.34
C=CCOC[C@@H](O)CN(Cc1ccco1)Cc1ccc(C)o1,-1,0.1
COc1ccc2cc(C(=O)N3CCN(c4cc(=O)n(C)c(=O)n4C)CC3)[nH]c2c1,-4,0.68
O=C(Cc1cccc(F)c1)OCc1nc(-c2ccccc2)no1,5,-0.58
Cc1nnc(NC(=O)N2CCC(CCc3ccc(F)cc3F)CC2)s1,1,-0.17
CCS(=O)(=O)N1CCc2nc(N3CCN(C)CC3)nc(Oc3ccc(F)cc3F)c2C1,-13,2.12
Cc1nc(C)c(C(C)NC(=O)NC2CCCC(C)C2)s1 (stereo not drawn),-4,0.59
CCOc1ccc(CN2CC[C@H](NC(=O)NCCOC)C2)cn1,-5,0.69
N#Cc1cccc(NC(=O)N2CCN(c3ncc[nH]3)CC2)c1,-14,1.6
O=C(COC[C@H]1CCCO1)Nc1ccc2[nH]c(=O)sc2c1,42,-5.46
CCN1CCN(C(=O)CCc2c(OC)nc3c(c(C)nn3-c3ccc(C)cc3)c2C)CC1,1,-0.21
CCCc1cnc(NC(=O)NCC2CCCC(O)C2)s1 (stereo not drawn),-8,1.03
CS(=O)(=O)c1cn(Cc2ccccc2)c(C#N)c1N,7,-1.01
O=C(NCc1ccco1)c1ccccc1NC(=O)c1cccc2ccccc12,-10,1.49
Clc1cc(CNC2(c3noc(C4CC4)n3)CCCC2)c2c(c1)COCO2,0,0.08
Cc1nnc(COc2nc(C(C)C)no2)n1C1CC1,8,-0.9
CN1CCN(C(=O)c2ccc3c(c2)CCC3)C[C@]12CCNC(=O)CC2,-14,2.4
Cc1nc2ccnn2c(C)c1CCC(=O)N1CCOC2CCCC21 (stereo not drawn),-1,0.2
O=C(NCc1ccc(O)cc1O)N1CC[C@@H]2CCCC[C@H]2C1,-9,1.57
